# Data taken from ChEMBL document CHEMBL4888484, “Replenishing the malaria drug discovery pipeline: Screening and hit evaluation of the MMV Hit Generation Library 1 (HGL1) against asexual blood stage Plasmodium falciparum ,using a nano luciferase reporter read-out” (2022).
# In all, about 150,000 compounds went through this assay and about 540 (0.36%) showed an effect of 50% or more. This is one part of the list.
# Tested on: Plasmodium falciparum
# Test: Primary screen in NF54 nanoGlo assay, in single point, at 2uM, 72h; a lower Z score goes with more inhibition
# Assay type: functional, Erythrocyte
# Conditions: timepoint 72 hour
Compound,% Inhibition,Z score
CC[C@@H](Cc1ccc(C(F)(F)F)cc1)C(=O)Nc1nnn[nH]1,1%,-0.17
COc1ccc2nc(C)cc(Nc3ccccc3OC)c2c1,3%,-0.48
CCC12OC3C(O)C4CC3C1C4C(=O)N2c1ccc(Cl)cc1Cl (stereo not drawn),-13%,1.2
CN1CC[C@@]2(CCC1=O)CN(c1ccnc3ccc(Cl)cc13)CCN2C,-4%,0.66
Cc1cc(C)nc(-n2cc(C(=O)N3CC4CCC3C4)c(C(C)C)n2)n1 (stereo not drawn),-14%,1.44
COc1cccnc1N(C)C(=O)C1(C#N)CCCCC1,-7%,0.62
Cc1cccc(NC(=O)Cn2cnc3nc4c(cc3c2=O)CCCC4)c1,-15%,2.29
O=C(COc1ccccc1Cl)Nc1ccc2[nH]ncc2c1,-13%,1.55
C=C(C)CN(CC)C(=O)CNc1c(C)cccc1C(N)=O,-2%,0.28
CC(O)CN(CC(C)O)CC(O)COc1ccccc1Br (stereo not drawn),-11%,1.48
CCn1cc(C(=O)N2CCCN(CC(C)C)[C@H](c3nc(C)no3)C2)cn1,-11%,2.02
CCn1cc(S(=O)(=O)N2CCOc3c(F)ccc(F)c32)cn1,-3%,0.64
O=C(C1CCCCC1)N1CCCc2ccccc21,5%,-0.66
O=C(NCCOCCn1cccn1)Nc1ccccc1,-14%,1.61
O=C(NCc1n[nH]c(=O)[nH]1)[C@@H]1CCCN1C(=O)C1CCCCC1,9%,-1.63
CCOC(=O)c1nn(Cc2ccccc2)c2c1CN(C(=O)c1nonc1C)CC2,-11%,1.38
CC(C)c1nccc(C(=O)NCC[C@H]2CCCN(C)C2)n1,10%,-1.96
Cc1ccc(C(=O)N2CCN(C3CCCCC3)CC2)cc1-n1nnc2cccnc21,-16%,3.09
Cn1cc(-c2ccc(CNC(=O)c3nc(-c4cccs4)cs3)cn2)cn1,-15%,2.18
CC[N+]1(Cc2cc(CCC(=O)OC)ccc2OC)CCCCC1,-6%,0.74
Cc1cc(C)c2c(c1)NC(=O)[C@H]2CC(=O)NCCc1cc(=O)[nH]c(C(C)C)n1,-9%,1.01
C=C1C(C)(C)[C@@H]2CC[C@@]1(C(=O)NCc1cc(C3CC3)on1)C2,9%,-1.22
CCc1nc(C)c(C(=O)NC[C@H]2CCCN(S(C)(=O)=O)C2)s1,-16%,2.96
CCN(C[C@H]1CCCCO1)c1nc(CCN)nc2ccccc12,-3%,0.25
